Consider 40 sequences from the supplement of paper PMC10441789.

The list shows a part of the results. Antibody binding of pooled human sera (four to six donors per pool; dilution not stated) to peptides of the Trypanosoma cruzi antigen TSSA on microarrays. Quantile-normalised fluorescence in arbitrary units, mean of duplicate arrays; higher = more binding. No active / inactive call. The uninfected pools are read here as the healthy donors of the same country. The strongest signals lie near the top of the scale (about 60,000).

In the assay the test system is pooled sera of uninfected people, Colombia. Description: antibody binding signal (normalised fluorescence) (arbitrary fluorescence units); higher = stronger serum antibody binding to peptide. As for the experimental part: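 Microarray of 15-residue peptides over residues 30-55 of Trypanosoma cruzi TSSAII, each with 1 to 10 substitutions at naturally variable positions, probed with one serum pool per country.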
The sequence KDKKAATGGTPSQSG had an antibody binding signal of 243. NKAAAGGTPSQPGAS had an antibody binding signal of 539. With TPPSGKEKKAATGEA, the antibody binding signal is 429. In the case of STPPSGKENKTATGE, the antibody binding signal was 1100. In the case of GTDKKAATGEAPSPP, the antibody binding signal worked out at 433. TPPSGTDNKAATGET returned an antibody binding signal of 255. Under STPPSGTENKPAAGG stands 1270. GKENKTAAGGTPSPS returned an antibody binding signal of 170. PPSGTDNKPATGGTP had an antibody binding signal of 745.

In turn, KENKAAAGEAPSPPG yielded an antibody binding signal of 152. Under SSTPPSGTEKKPATG stands 219; under GTENKTAAGETPSPP, 246.

Sequence TPPSGKENKAATGET gave an antibody binding signal of 899. Under GKENKPAAGEAPSQS stands 128; under STPPSGKDKKAATGG, 223; under TISTPPSGTDNKTAA, 418. Under TPPSGKDKKTAAGET stands 607. Under GKDNKTATGETPSQP stands 405; under SSTPPSGKENKAAAG, 772; under KKAAAGEAPSPPGAS, 145.

For the sequence SGKENKAAAGGAPSQ, the antibody binding signal came to 246.

Sequence GKEKKPAAGGAPSQP registered an antibody binding signal of 107. Sequence TDKKPATGGTPSQSG gave an antibody binding signal of 192. Regarding GTDNKPATGGTPSQS, the antibody binding signal turned out to be 252. SGTENKPAAGETPSQ came in with an antibody binding signal of 234. Regarding SGTENKTATGEAPSP, the antibody binding signal stood at 279. In the case of TEKKTAAGGTPSQPG, the antibody binding signal is 492. As to TEKKAATGGTPSPSG, the antibody binding signal was 1410.

KDKKTATGGAPSQPG displayed an antibody binding signal of 75.4.

For the sequence TPPSGKDNKTAAGGT, the antibody binding signal was found to be 216. Under KENKAAAGGAPSQSG stands 93.4; under KENKAATGGTPSPPG, 131.

Turning to GTDKKTAAGGTPSQS, the antibody binding signal is 154. In turn, TPPSGTENKAATGGT had an antibody binding signal of 384. As to TPPSGKEKKTAAGGT, the antibody binding signal was found to be 190. NKPATGETPSPPGAS gave an antibody binding signal of 554. KENKTATGETPSQSG: the antibody binding signal was 167.

Regarding PSGKEKKTAAGEAPS, the antibody binding signal came out at 987.

In turn, GTEKKPATGGAPSQP registered an antibody binding signal of 134. GKDKKPATGGAPSQS showed an antibody binding signal of 82.7.
